A lower IC50 marks a more sensitive line; where the fit passes the top or lowest dose, that dose stands as a limit. AUC, from the same fit, is the share of area under the viability curve across the 256-fold dose range; it is 1 without any effect and falls as sensitivity rises. A top dose marked as inferred was derived from the fitted curves, not read from the paper. For part of these data: Where an entry number is given, a second screen of the drug exists; the two often differ.
Assays:
Test in all cases: Viability of human cancer cell lines after 72 h of drug (GDSC screen)
BMS-536924 = compound: Cc1cc(N2CCOCC2)cc2[nH]c(-c3c(NC[C@@H](O)c4cccc(Cl)c4)cc[nH]c3=O)nc12 [BMS-536924]
Description: (§1)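 Human cancer cell lines in 384-well plates, medium with 10% serum, drug for 72 h over a 256-fold dose range (nine 2-fold or five 4-fold steps up to the top dose). Adherent lines were fixed and stained with the nucleic acid dye Syto60, suspension lines read with resazurin; signal relative to control wells, capped at 0 and 100%. One two-parameter sigmoid per drug and line, fitted in a mixed model over all curves with the slope shared within a line.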

Olaparib = compound: O=C(c1cc(Cc2n[nH]c(=O)c3ccccc23)ccc1F)N1CCN(C(=O)C2CC2)CC1 [Olaparib]
Description: as §1

HG-5-113-01 = compound: CNC(=O)c1ccc(Nc2cc(Nc3ccccc3S(=O)(=O)C(C)C)c3cc[nH]c3n2)nc1 [HG-5-113-01]; conditions: top dose 10 µM; top dose inferred
Description: as §1

A-770041 = compound: COc1cc(-c2nn([C@H]3CC[C@H](N4CCN(C(C)=O)CC4)CC3)c3ncnc(N)c23)ccc1NC(=O)c1cc2ccccc2n1C [A-770041]; conditions: top dose 5.12 µM; top dose inferred
Description: as §1

Shikonin = compound: CC(C)=CC[C@@H](O)C1=CC(=O)c2c(O)ccc(O)c2C1=O [Shikonin]; conditions: top dose 16 µM; top dose inferred
Description: as §1

CGP-082996 (CINK4) = compound: CCNc1cc(NC2CCC(O)CC2)nc(Nc2ccc3c(ccn3Cc3ccccc3)c2)n1 [CGP-082996 (CINK4)]; conditions: top dose 5.12 µM; top dose inferred
Description: as §1

XMD8-85 = compound: COc1cc(N2CCN(C)CC2)ccc1Nc1ncc2c(n1)N(C)c1ccccc1C(=O)N2C [XMD8-85]; conditions: top dose 8 µM; top dose inferred
Description: as §1

VX-702 = compound: NC(=O)c1ccc(N(C(N)=O)c2c(F)cccc2F)nc1-c1ccc(F)cc1F [VX-702]; conditions: top dose 2 µM; top dose inferred
Description: as §1

SB-525334 = compound: Cc1cccc(-c2[nH]c(C(C)(C)C)nc2-c2ccc3nccnc3c2)n1 [SB-525334]; conditions: top dose 20 µM; top dose inferred
Description: as §1

Wee1 inhibitor 681640 = compound: O=C1NC(=O)c2c1c(-c1ccccc1Cl)cc1[nH]c3ccc(O)cc3c21 [Wee1 inhibitor 681640]; conditions: top dose 2 µM; top dose inferred
Description: as §1

BIRB 0796 = compound: Cc1ccc(-n2nc(C(C)(C)C)cc2NC(=O)Nc2ccc(OCCN3CCOCC3)c3ccccc23)cc1 [BIRB 0796]; conditions: top dose 10 µM; top dose inferred
Description: as §1

[1] = top dose 4 µM, screen: GDSC drug entry 1091, top dose inferred
[2] = top dose 5.12 µM, screen: GDSC drug entry 62
[3] = top dose 5 µM, screen: GDSC drug entry 1017, top dose inferred
[4] = top dose 10 µM, screen: GDSC drug entry 1495

Cell Line | AUC (BMS-536924; [1]) | IC50 (BMS-536924; [1]) | AUC (BMS-536924; [2]) | IC50 (BMS-536924; [2]) | AUC (Olaparib; [3]) | IC50 (Olaparib; [3]) | AUC (Olaparib; [4]) | IC50 (Olaparib; [4]) | AUC (HG-5-113-01) | IC50 (HG-5-113-01) | AUC (A-770041) | IC50 (A-770041) | AUC (Shikonin) | IC50 (Shikonin) | AUC (CGP-082996 (CINK4)) | IC50 (CGP-082996 (CINK4)) | AUC (XMD8-85) | IC50 (XMD8-85) | AUC (VX-702) | IC50 (VX-702) | AUC (SB-525334) | IC50 (SB-525334) | AUC (Wee1 inhibitor 681640) | IC50 (Wee1 inhibitor 681640) | AUC (BIRB 0796) | IC50 (BIRB 0796)
LS-123 (large intestine, adherent) | 0.979 | > 4 µM | 0.882 | > 5.12 µM | 0.966 | > 5 µM | 0.942 | > 10 µM | 0.726 | 3.46 µM | 0.812 | 3.93 µM | 0.398 | 0.48 µM | 0.865 | > 5.12 µM | 0.883 | > 8 µM | 0.953 | > 2 µM | 0.959 | > 20 µM | – | – | – | –
NB7 (neuroblastoma, adherent) | 0.985 | > 4 µM | 0.916 | > 5.12 µM | – | – | 0.971 | > 10 µM | 0.979 | > 10 µM | 0.957 | > 5.12 µM | 0.477 | 0.862 µM | 0.958 | > 5.12 µM | 0.95 | > 8 µM | – | – | 0.784 | 8.91 µM | 0.986 | > 2 µM | 0.983 | > 10 µM
NCI-H716 (large intestine, suspension) | 0.57 | 0.409 µM | 0.879 | > 5.12 µM | 0.801 | 3.21 µM | 0.979 | > 10 µM | 0.661 | 1.98 µM | 0.975 | > 5.12 µM | 0.976 | > 16 µM | 0.98 | > 5.12 µM | 0.824 | 6.48 µM | 0.672 | 0.429 µM | 0.96 | > 20 µM | – | – | – | –
NEC8 (testis, adherent) | 0.891 | 3.4 µM | 0.964 | > 5.12 µM | 0.937 | > 5 µM | – | – | 0.818 | 4.59 µM | 0.777 | 1.74 µM | 0.466 | 0.82 µM | 0.937 | > 5.12 µM | 0.955 | > 8 µM | 0.991 | > 2 µM | 0.984 | > 20 µM | – | – | 0.899 | 9.26 µM
NTERA-2 cl.D1 (testis, adherent) | 0.687 | 0.832 µM | 0.416 | 0.189 µM | 0.713 | 1.24 µM | 0.362 | 0.26 µM | 0.602 | 1.19 µM | 0.884 | > 5.12 µM | 0.243 | 0.183 µM | 0.893 | > 5.12 µM | 0.807 | 4.07 µM | 0.985 | > 2 µM | 0.878 | 19.9 µM | – | – | – | –
OVCAR-4 (ovary, adherent) | 0.924 | > 4 µM | 0.796 | 3.9 µM | 0.96 | > 5 µM | 0.933 | > 10 µM | 0.728 | 3.89 µM | 0.625 | 0.838 µM | 0.483 | 0.876 µM | 0.866 | > 5.12 µM | 0.903 | > 8 µM | 0.961 | > 2 µM | 0.927 | > 20 µM | – | – | 0.909 | > 10 µM
PL-21 (acute myeloid leukaemia, suspension) | 0.872 | > 4 µM | 0.502 | 0.325 µM | 0.983 | > 5 µM | 0.968 | > 10 µM | 0.821 | 7.11 µM | 0.963 | > 5.12 µM | 0.439 | 0.664 µM | 0.965 | > 5.12 µM | 0.848 | 7.51 µM | 0.966 | > 2 µM | 0.979 | > 20 µM | – | – | – | –
RS4-11 (leukaemia, suspension) | 0.957 | > 4 µM | 0.718 | 1.24 µM | – | – | 0.929 | > 10 µM | 0.587 | 1.06 µM | 0.941 | > 5.12 µM | 0.351 | 0.402 µM | 0.858 | 3.65 µM | 0.803 | 3.56 µM | – | – | 0.973 | > 20 µM | 0.905 | > 2 µM | 0.983 | > 10 µM
SK-N-DZ (neuroblastoma, adherent) | 0.837 | 2.62 µM | 0.772 | 1.95 µM | 0.982 | > 5 µM | 0.985 | > 10 µM | 0.502 | 0.634 µM | 0.945 | > 5.12 µM | 0.551 | 1.37 µM | 0.952 | > 5.12 µM | 0.851 | 6.03 µM | 0.972 | > 2 µM | 0.836 | 13 µM | – | – | – | –
SKM-1 (haematopoietic neoplasm, suspension) | 0.687 | 0.884 µM | 0.95 | > 5.12 µM | – | – | 0.923 | > 10 µM | 0.721 | 2.84 µM | 0.982 | > 5.12 µM | – | – | 0.93 | > 5.12 µM | 0.979 | > 8 µM | – | – | – | – | 0.913 | > 2 µM | 0.984 | > 10 µM
SW872 (soft tissue, adherent) | 0.879 | 3.43 µM | 0.795 | 2.12 µM | – | – | 0.979 | > 10 µM | 0.787 | 3.9 µM | 0.559 | 0.456 µM | 0.335 | 0.365 µM | 0.954 | > 5.12 µM | 0.879 | 6.82 µM | – | – | 0.971 | > 20 µM | – | – | – | –
no-10 (glioma, adherent) | 0.981 | > 4 µM | 0.818 | 3.76 µM | 0.983 | > 5 µM | 0.956 | > 10 µM | 0.873 | > 10 µM | 0.692 | 1.26 µM | 0.336 | 0.313 µM | 0.811 | 3.51 µM | 0.806 | 5.21 µM | 0.98 | > 2 µM | 0.98 | > 20 µM | – | – | – | –

— the supplement of paper PMC4967469
